Whole data set: some 33,000 sequences, median “E-score (-0.5 to 0.5)” near -0.012, cut for the highest 2% near 0.27. Some of the results follow.
Target: T1, Vhr1 (UniProt P40522)
T1 sequence: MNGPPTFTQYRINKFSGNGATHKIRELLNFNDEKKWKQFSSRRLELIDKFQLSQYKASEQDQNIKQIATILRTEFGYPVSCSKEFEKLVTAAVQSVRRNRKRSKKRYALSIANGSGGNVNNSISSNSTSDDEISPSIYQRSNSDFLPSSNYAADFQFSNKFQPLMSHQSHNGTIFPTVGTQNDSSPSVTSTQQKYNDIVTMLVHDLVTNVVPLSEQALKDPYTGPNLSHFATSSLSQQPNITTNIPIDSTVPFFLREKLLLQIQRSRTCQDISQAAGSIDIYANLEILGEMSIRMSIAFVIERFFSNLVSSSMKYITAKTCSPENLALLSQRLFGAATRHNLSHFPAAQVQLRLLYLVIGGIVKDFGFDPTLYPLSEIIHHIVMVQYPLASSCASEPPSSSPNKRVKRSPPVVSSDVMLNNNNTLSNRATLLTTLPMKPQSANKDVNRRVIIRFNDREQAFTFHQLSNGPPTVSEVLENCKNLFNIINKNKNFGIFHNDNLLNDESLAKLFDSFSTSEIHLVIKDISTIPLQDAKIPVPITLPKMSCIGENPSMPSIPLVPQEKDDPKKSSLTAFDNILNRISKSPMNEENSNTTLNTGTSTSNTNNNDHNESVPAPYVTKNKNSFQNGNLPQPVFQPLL
Test: PBM E-score (8-mer binding enrichment) (E-score (-0.5 to 0.5)); higher = stronger / more preferred TF binding; most listed sequences are background and not binding sites
Details: protein concentration: 200 nM; construct: GST-full length
Experimental: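 Universal 'all 10-mer' protein binding microarrays (Agilent AMADID 015681) probed with GST-tagged S. cerevisiae TFs (full-length or DBD) made by in vitro transcription/translation (PURExpress), about 100-200 nM. Bound TF was detected with fluorescent anti-GST. Each ungapped 8-mer (which stands for itself and its reverse complement) is scored by the PBM enrichment score (E-score), a modified Wilcoxon-Mann-Whitney statistic from -0.5 to +0.5, computed with the Universal PBM Analysis Suite. Scale: above 0.35 generally sequence-specific binding.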

In order of falling “PBM E-score” value:
1. GAATCATA  0.397
2. GTGAGCCA  0.355
3. TCGACTCA  0.349
4. ATGACTTC  0.341
5. AATCACCA  0.33
6. ACATCATA  0.266
7. GTGACTTA  0.259
8. AACCCGCG  0.238
9. ATGAGACA  0.234
10. AACATGTG  0.227
11. CGAATGAC  0.215
12. AATGGTTC  0.212
13. AGATCATA  0.203
14. CCGTATGA  0.199
15. ATGGGCTG  0.198
16. CATAGCAC  0.195
17. CACCCATG  0.184
18. AGTGCGTG  0.177
19. CGCGACCG  0.17
20. ATGTTACA  0.17
21. CGCAAGCC  0.17
22. AGATTATG  0.162
23. GCCCCTGA  0.16
24. CCCACTGC  0.157
25. CGGTGACA  0.148
26. AGTTAGTA  0.137
27. GTACACGA  0.137
28. CGTTCGTA  0.135
29. AGTGGCGG  0.134
30. AGATACGA  0.13
31. GAATGATC  0.128
32. ATTACGAG  0.127
33. CACTACTA  0.125
34. GTCATAAC  0.125
35. CACATGCG  0.124
36. ATATGAGC  0.122
37. AGTAGTAC  0.121
38. CAATATGG  0.114
39. CTTTACTA  0.11
40. GGTTAGTA  0.108
41. ATATACAG  0.103
42. CCGTACCA  0.102
43. CAATCGCG  0.1
44. TAACCCAA  0.095
45. CCTGAATC  0.0923
46. CAGCCCAA  0.0901
47. CATTATAG  0.0846
48. GAAAAGAC  0.0806
49. ACGGTTTG  0.0802
50. GTTGTTAA  0.0801
51. CAAGCCGG  0.0801
52. TCGATTCA  0.0773
53. TCATGGCA  0.0755
54. GAACGACA  0.0721
55. CATTTAAA  0.0721
56. GGCCACGA  0.0718
57. CGTAGCTC  0.0681
58. ATCCTTAC  0.068
59. CGTTACCA  0.0673
60. AACCGAGT  0.0637
61. ACAGAAAA  0.0629
62. GACGGCAA  0.0613
63. CAATGGAA  0.0591
64. GACCGAAC  0.0587
65. GCATCGTA  0.0567
66. GTAACGAC  0.0561
67. CCGCAAGA  0.0543
68. ATCGATAA  0.0524
69. CCTCATCA  0.0489
70. ACCGTTAC  0.0489
71. CACTCTAA  0.0466
72. ACCATACA  0.0461
73. ATTCGCAA  0.0447
74. ATAGATGA  0.042
75. ACGCGACC  0.0419
76. ATTTCCTA  0.0418
77. GACATTCA  0.0415
78. AGGCCAGA  0.0413
79. TCGTCACA  0.0377
80. TCGTGCCA  0.0339
81. CCCAATTC  0.0325
82. GGCAGGGA  0.0297
83. ACGTTGCT  0.0258
84. AAGGTTAT  0.0219
85. CGAACCGA  0.0202
86. CCCCGACG  0.02
87. CGGGATCC  0.0185
88. GCACCGAC  0.0173
89. AGATAACG  0.0166
90. CACTACGA  0.0137
91. ACGGGCGG  0.013
92. ATCTGCAG  0.0125
93. AGTTCGGG  0.0123
94. AGCATCGG  0.00761
95. CGTTAGCA  0.00713
96. CCGGTTTC  0.00669
97. ATAAGTAA  0.00659
98. CTAAGACA  0.00502
99. ATAAATAA  0.00317
100. AACTGTTA  0.00067
101. CCAGATTA  0.00015
102. ATCTCTCG  -0.0016
103. CCATCCCC  -0.00278
104. CACTGTAC  -0.00349
105. TATGCGCA  -0.00407
106. CTAAACAG  -0.00454
107. CATCACTA  -0.00513
108. CCGGTCCC  -0.00652
109. CCTCTTCA  -0.0067
110. CCACCGGG  -0.00778
111. AAAGGCAA  -0.00942
112. TAGCTCCA  -0.0103
113. CCGTGAAA  -0.0126
114. GGCAAAGA  -0.0131
115. GACGAAAA  -0.0135
116. ATTACTTA  -0.0137
117. TCTGCTCA  -0.0147
118. ATACGAAT  -0.0149
119. CGCGCTGA  -0.0182
120. CGGGCAAA  -0.0237
121. GTTTTGGA  -0.0253
122. GACAAATC  -0.0258
123. CACTGTTC  -0.0267
124. ACACGGAA  -0.0284
125. GCAGTCTA  -0.0301
126. AACTAAAT  -0.0313
127. ACGTACCG  -0.0333
128. CAATAAGC  -0.035
129. GTATCCCA  -0.0357
130. CGTCGAGC  -0.0366
131. AGGATCTG  -0.0393
132. CCTGCGTA  -0.0395
133. ATCCGTCA  -0.0404
134. GGGGTCTA  -0.0418
135. GCGAACGC  -0.042
136. ATAGATAC  -0.0435
137. CATAATGC  -0.0446
138. AGTTTTTG  -0.0458
139. CACTAGCA  -0.0471
140. GAGTGGCC  -0.0478
141. ACCCGTGG  -0.0504
142. AACTTGCA  -0.0527
143. GACGCCTC  -0.0533
144. GAAAAAAA  -0.0556
145. AAGTTTAT  -0.0565
146. AGCCGGCT  -0.0587
147. AATTAGCC  -0.0619
148. CAGAGCCA  -0.0622
149. CTAGCAGC  -0.0636
150. CTTATTTC  -0.065
151. AAGGTAAG  -0.0663
152. CTTAGCAC  -0.0691
153. AATATAGA  -0.0698
154. AGGTGCAC  -0.0699
155. TCAGCAAA  -0.0743
156. ACGCCTGA  -0.0743
157. GCTAAGAA  -0.0747
158. CTCGACAA  -0.0758
159. CAAAGCTG  -0.0775
160. GAAGCTGA  -0.0786
161. GAAATTAC  -0.0807
162. CATTTGGC  -0.0816
163. CTAAAGAG  -0.0856
164. ACTAGTTC  -0.0876
165. GCATAGCA  -0.0925
166. GGATTAGA  -0.101
167. CATTCTTC  -0.104
168. CGCAGTAA  -0.104
169. GCAGCTAA  -0.106
170. AGTAAGGA  -0.11
171. CCCACGCC  -0.112
172. AAGTTTCT  -0.113
173. ACTGCTAC  -0.114
174. GATTTACA  -0.115
175. AGGTACCT  -0.116
176. GGCATACC  -0.118
177. GCAGTTAC  -0.118
178. GCTATAAA  -0.123
179. CCACTTTC  -0.129
180. CAGCTTGC  -0.129
181. GGCAGGAC  -0.134
182. CGCTGGAA  -0.135
183. AGCGTGGG  -0.136
184. CGTAAGAG  -0.136
185. TATGGAGA  -0.137
186. GCATCGCC  -0.137
187. ACGCCTAT  -0.142
188. CAAAAGGG  -0.143
189. GTTACAGA  -0.144
190. CGCCTTAC  -0.144
191. CTCTTAGA  -0.151
192. AGCAGTCC  -0.151
193. AAAAGTGC  -0.152
194. CCGGTTTA  -0.153
195. CTAGACGC  -0.154
196. AAAAGTAC  -0.155
197. ACACGTCG  -0.155
198. TAAGTTCA  -0.156
199. ACTTTCCT  -0.157
200. GACCTTGC  -0.157
201. GTAAAGAA  -0.159
202. CTTAGCCC  -0.162
203. AGGCCCTG  -0.162
204. GGTTTCCA  -0.164
205. GCCTCCCA  -0.165
206. AACCTACG  -0.169
207. GGAAGTAA  -0.17
208. TTACTGAA  -0.183
209. AAACTCCT  -0.191
210. ACAGGCCC  -0.193
211. AAGCTTTC  -0.195
212. GAGAGCGC  -0.202
213. ACCCCTTG  -0.212
214. TACCAAAA  -0.223
215. AGGCTTTA  -0.229
216. GGGAATTA  -0.252
217. CATTTAAG  -0.267
218. AAGAAGGC  -0.285
219. AGAAAAAC  -0.319

— the supplement of paper PMC3334620
